# Laboratory results taken from the supplement of paper PMC10338343.
# ± gives the standard deviation. Only a part is listed here, and it is no random draw.
# System: MIWI (PIWIL1) piRISC loaded with L1MC piRNA (30 nt)
# Assay: pre-steady-state target cleavage rate (min^-1); MIWI and MILI are mouse PIWI proteins and EfPiwi is from a freshwater sponge; tags in brackets are library labels; higher = faster piRNA-guided slicing of the target
# Conditions: guide: L1MC piRNA 5'p-UAACUAAAUACUAUGCAAGCUGUAGGUCCU
# How it was run: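 Cleave-'n-Seq: 1 nM active affinity-purified piRISC with one synthetic guide and 0.1 nM transcribed, DNA-blocked target RNA library were mixed, with or without 500 nM GTSF1 partner protein, in HEPES–potassium acetate buffer at 33 °C for 0–8 or 0–960 min. Uncleaved targets were sequenced and normalised to depth and to weakly complementary targets, three trials were pooled, and k3 was capped at 0.0001 min^-1. The pre-steady-state cleavage rate was fitted […].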
# [1] = auxiliary factor: 500 nM mouse GTSF1
# [2] = auxiliary factor: none (no GTSF1)
Sequence,pre-steady-state target cleavage rate [1],pre-steady-state target cleavage rate [2]
UCCACCUACUGCUUGCAUAGUAUUUACAAA,0.114 ± 0.017,0.00302 ± 0.0021
UCCACCUACAGCUUGCAUAGUAUUUAGUAA,0.669 ± 0.069,0.0343 ± 0.0088
UGGACCUACACCUUGCAUAGUAUUUAGUAA,0.699 ± 0.07,0.0318 ± 0.0058
UCGACCUACAGCUUGCAUAGUAUUAACUUA,0.248 ± 0.032,0.00848 ± 0.0033
UCCACCUACAGCUACCAUAGUAUUUAGUUA,0.404 ± 0.046,0.00206 ± 0.002
UCCUGGUAGAGCUUGCAUAGUAUUAAGUUA,0.465 ± 0.072,0.0149 ± 0.0049
UCCUGGAUGAGCUUGCAUAGUAUUAUGUUA,0.194 ± 0.027,0.0102 ± 0.0042
UCCUGGUACUGCUUGCAUAGUAUUUAGUAA,0.188 ± 0.03,0.0151 ± 0.0045
UCCUCCUUCAGCUUCCAUAGUAUUUAGUUA,0.0615 ± 0.018,0.00274 ± 0.0017
UCCUGGAUGAGCUAGCAUUGUAUUUAGUUA,0.095 ± 0.012,0.00615 ± 0.0028
UCCUGGAACAGCAUGCAUAGUAAUUAGUUA,0.576 ± 0.044,0.0117 ± 0.0047
UCCUGGAACAAGCUUGCAUAGUAUUUAGUUA,0.908 ± 0.037,0.0561 ± 0.012
UCCUGGUACAGCUUGCAUAGCAUUUAGUUA,0.331 ± 0.065,0.0226 ± 0.0046
UGGACGUACAGCUUGCAUACUAUUUAGUUA,0.291 ± 0.018,0.0302 ± 0.0064
AGGACCUACAGGAUGCAUAGUAUUUAGUUA,1.06 ± 0.092,0.023 ± 0.0047
UCCUGGAACAGCUUGCAUAGGAUUUAGUUA,0.0212 ± 0.0044,0.0118 ± 0.0032
UGGACCUACAGCUAGCAUAGUAUUAAGUUA,0.955 ± 0.071,0.01 ± 0.0024
UCCUGGAAGAGCUUGCAUAGAAUUUAGUUA,0.211 ± 0.023,0.0134 ± 0.0054
AGGACCUACAGCUUGCAUAGUAUAUACUUA,0.254 ± 0.048,0.00911 ± 0.0026
UGGACGUACAGCUUGCAUUGUAUUUAGUUA,0.79 ± 0.05,0.0432 ± 0.01

Sequence,pre-steady-state target cleavage rate [1],pre-steady-state target cleavage rate [2]
UCCUGGUACAGCUUGCUUAGUAUUUAGAUA,0.249 ± 0.041,0.00898 ± 0.002
AGGACCUACACUUGCAUAGUAUUUAGUUA,1.15 ± 0.043,0.0736 ± 0.016
UCGGACCUACAGCUUGCAUAGUAUUUAGUUA,1.37 ± 0.097,0.0616 ± 0.01
UGGACCUACAGCAUGCAUAGUAUUUAGUUA,1.38 ± 0.078,0.0549 ± 0.011
UCCUGCUACAGCAAGCAUAGUAUUUAGUUA,1.17 ± 0.11,0.00323 ± 0.0021
UCGACCUAGUCCUUGCAUAGUAUUUAGUAA,0.257 ± 0.033,0.00756 ± 0.0017
UCCUGGAUGAGCUUGCAUUGAAUUUAGUUA,0.0232 ± 0.0044,0.00429 ± 0.0025
AGGACCUUGAGCUUGCAUAGUAUUUAGUUA,1.18 ± 0.081,0.0761 ± 0.016
UCCACCUACAGCUUGCAUAGCAUUUAGUUA,0.314 ± 0.033,0.0209 ± 0.0038
AGGACGUACAGCUUGCAUAGUAUUUAGAUA,0.414 ± 0.05,0.0345 ± 0.0073
UCCUGGUACAGCAUGCAUACUAUUUAGUUA,0.335 ± 0.051,0.0183 ± 0.0033
UAGACCUACAGCUUGCAUAGUAUUUAGUUA,1.31 ± 0.043,0.0672 ± 0.011
UCCUGGAUCAGCUUGCAUAGUUAAUAGUUA,0.0217 ± 0.0054,0.00865 ± 0.0029
UCCUGGUACAGCUUCCUUAGUAUUUAGUUA,0.279 ± 0.047,0.00407 ± 0.002
AGGUGGUACAGCUUGCAUAGUAUUUAGUUA,1.36 ± 0.057,0.0811 ± 0.015
UCGAUCUACAGCUUGCAUAGUAUUUAGUUA,1.61 ± 0.05,0.072 ± 0.013
UCCUGGUACAGGUUGCAUAGUAUUUUGUUA,0.665 ± 0.12,0.0157 ± 0.0042
UCGACCUACAGCUUGCAAAGUAUUUAGAAA,0.396 ± 0.035,0.00573 ± 0.0027
UCCACCUACAGGAUGCAUAGUAUUUAGUAA,0.866 ± 0.1,0.00483 ± 0.0013
UCCACCUACAGCUUGCAUAGUAUUGAGUUA,0.467 ± 0.054,0.0279 ± 0.0048

Sequence,pre-steady-state target cleavage rate [1],pre-steady-state target cleavage rate [2]
UCCUGCUACACCUAGCAUAGUAUUUAGUUA,0.717 ± 0.061,0.00802 ± 0.0017
UGGACCUACAGCUUGAAUAGUAUUUAGUUA,1.63 ± 0.08,0.0423 ± 0.0078
AGGACCUACAGCUUGCAUAGUCAUUUAGUUA,0.138 ± 0.037,0.00487 ± 0.0028
UCCUGCUACACCUUGCUUAGUAUUUAGUUA,0.627 ± 0.047,0.0251 ± 0.005
UCCUGGAUGUGCUUGCAUAGUAUUUAGUA,0.155 ± 0.019,0.0106 ± 0.0033
UGGACCUACAGCUUGCAUAGUCUUUAGUUA,0.884 ± 0.048,0.0432 ± 0.011
UCCUGGAUGAGCUUGCAAAGUAUUUAGAAA,0.188 ± 0.033,0.00561 ± 0.0024
UCCAACCUACAGCUUGCAUAGUAUUUAGUUA,1.05 ± 0.037,0.055 ± 0.0073
UCCUCCUACAGCUAGCAUAGUAUUAAGUUA,0.603 ± 0.03,0.00394 ± 0.0022
UCCUGCUACAGCUUGCAUAGUAAUUACUUA,0.195 ± 0.033,0.0106 ± 0.0035
UCCUGGAAGAGCUUGCAAAGUAUUUAGUUA,0.735 ± 0.037,0.028 ± 0.007
UCCUGCUACACCUUGCAUAGUAUUUAGUUA,0.706 ± 0.057,0.0371 ± 0.0073
UCCUGGAACAGCUUGCAUAGAUUUUAGUUA,0.0639 ± 0.0078,0.00602 ± 0.0031
UCCACCUACAGCUUGCAUAGUAUUUAGGUUA,0.409 ± 0.062,0.0153 ± 0.0045
UCCUGGAUCAGCUUGCAUAGUAUUUGAGUUA,0.521 ± 0.057,0.0198 ± 0.005
UCCUCCUACAGCUUGCAUAGUUUUAAGUUA,0.165 ± 0.019,0.00872 ± 0.0018
UCCUGCUACAGGAAGCAUAGUAUUUAGUUA,0.815 ± 0.072,0.00481 ± 0.0021
UCCUGGAACACCUUGCAUAGUAUAUAGUUA,0.36 ± 0.048,0.00647 ± 0.0026
UGGACCUACAGCUAGCAUAGUAAUUAGUUA,0.89 ± 0.057,0.00994 ± 0.003
UCCUGGGACAGCUUGCAUAGUAUUUAGUUA,0.875 ± 0.066,0.0815 ± 0.017
